Where “and” joins values, the source holds several entries; their conditions need not be identical. Equal values may be shown once. The shares of active, inactive and inconclusive entries below differ from those in the screen. For some of these results: Potencies beside an inconclusive call are fits to weak or partial responses and may not hold up. For some of these results: A note “side channel” means that the fit belongs to a control or component signal, not to the main read-out. Calls of active or inactive are those of the source. Unless noted, calls follow the shape of the dose curve; as a rule, active = well fitted curve in the direction sought with a large enough effect; inconclusive = small, poorly fitted or top-dose-only effect, or another doubt; inactive = no such curve, though single readings can be large; an effect the other way counts as inactive or inconclusive. Numbered stars: 1 amine (or outer) side, 2 acyl side, 3 side chain; on linkers, the order of the positions; unused ones are H or OH. Bridge positions count the residues as written; N and C are the ends. Square brackets hold non-standard residues; d marks the D form. Peptide text beside a SMILES is read from it. I, II: the chains in the order shown. ξ: configuration not given here. Actinocin(9to1) = Cc1c2oc3c(C)ccc(C(=O)[*:1])c3nc-2c(C(=O)[*:2])c(N)c1=O; ξNMeV = CNC(C(=O)O)C(C)C; ξV = CC(C)C(N)C(=O)O; Sar = CNCC(=O)O
Key:
[1] = Vero cells viability qHTS for Zika virus inhibitors (AID 1347167); also: potency is read from the fitted curve at half-maximal effect; as to activity change, negative = cytotoxicity: % is scaled to controls: 0 for no effect and ±100 for the full control effect
Outline: (§1)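 Compounds were tested in concentration series on cells grown in DMEM containing 4% FBS. After 24 to 48 hours, cellular ATP was measured by luminescence with CellTiter Glo.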

[2] = HepG2 cells viability qHTS for Zika virus inhibitors (AID 1347168); also: potency is read from the fitted curve at half-maximal effect
Outline: as §1

[3] = NFAT Signaling Pathway (AID 444; active = well fitted curve in either direction with a large enough effect, not every such curve was filed as active; inconclusive = small, poorly fitted or top-dose-only effect, or another doubt;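 also: carbachol stimulus at about its EC50 of 1 µM final; % is scaled to controls: 0 for no effect and ±100 for the full control effect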); details: Jurkat NFAT-bla M1, carbachol, beta-lactamase ratio, 5 h; at 7.69 µM (top of the series)
Outline: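 Read-out: CCF4 FRET ratio (460 nm/530 nm) after 1 h RT dye loading, used for %activity and AC50 from titration series. Cells: Jurkat NFAT-β-lactamase/M1 line, treated with compound plus 1 uM carbachol for 5 h, 37 °C.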

[4] = target: Mitogen-activated protein kinase 10 (Mus musculus) (UniProt Q61831); test: JNK3 AlphaScreen Assay (AID 530; active = well fitted curve in either direction with a large enough effect, not every such curve was filed as active; inconclusive = small, poorly fitted or top-dose-only effect, or another doubt;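 also: kinase came from lysate of stimulated human HepG2 cells; signal reports phosphorylation of biotinylated GST-cJun 1-79 at Ser73 with 10 µM ATP; % is scaled to controls: 0 for no effect and ±100 for the full control effect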); details: JNK3 lysate, c-Jun phosphorylation; activity change, negative = inhibition: at 57.1 µM (top of the series)
Outline: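 Compound titrations were preincubated 15 minutes at room temperature with substrate, antibody and pre-activated JNK3-containing HepG2 lysate. Reactions were started with 10 uM ATP and stopped with EDTA-containing bead buffer for AlphaScreen detection.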

[5] = qHTS of pediatric cancer cell lines to identify multiple opportunities for drug repurposing: Confirmatory screen for MG 63 (6-TG R) cells (AID 1347119); details: MG-63 (6-TG resistant) osteosarcoma viability; activity change, negative = cytotoxicity: at 45.9 µM (top of the series); also: nearly all actives have a fitted effect of over 55% in size; also: potency is read from the fitted curve at half-maximal effect;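 as to activity change, negative = cytotoxicity: plate controls were DMSO neutral control for no effect and bortezomib for full effect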
Outline: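 Cells (500-1,000/well) rested 5 h, then received compounds for 48 h; metabolically active cells were measured by CellTiter-Glo luminescence. Final concentrations spanned up to 46 µM (MIPE, 11-point) or 0.59 nM-46 µM (NPC, 8-point) in primary screens, 11-point in follow-ups.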

[6] = qHTS Assay for Identification of Small Molecule Antagonists for NFkB Signaling Pathway (AID 895; active = well fitted inhibition curve with a large enough effect in the signal ratio, with a control signal flat, not every such curve was filed as active; inconclusive = small, poorly fitted or top-dose-only effect, or effect the other way, or a change in a side signal; the % refers to the signal ratio; also: potency is read from the fitted curve at half-maximal effect); details: NFkB beta-lactamase reporter cells, FRET ratio 460/530, stimulated with 10 pM TNF alpha; activity change, negative = inhibition: at 38.3 µM (top of the series)
Outline: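 Beta-lactamase reporter read-out (460 and 530 nm emission ratio, 405 nm excitation, 2 hrs substrate loading RT) after 5 hr stimulation with 10 pM TNF alpha in compound-treated NFkB-bla ME-180 cells in low-serum medium.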

[7] = qHTS Assay for Identification of Small Molecule Antagonists for Thrombopoietin (TPO) Signaling Pathway (AID 918); details: TPO-dependent cell signaling reporter, antagonist mode; activity change, negative = inhibition: at 38.5 µM (top of the series); also: nearly all actives have a fitted effect of over 60% in size
Outline: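 Ba/F3 (murine, hTPO-R, GPIIb-luc reporter); overnight IL-3 withdrawal; cpd + TPO 26 pM final (EC50); 24 h 37 C/5% CO2; Steadylite luminescence after 10 min RT.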

[8] = target: Vitamin D3 receptor (Homo sapiens) (UniProt P11473); test: qHTS assay for small molecule antagonists of vitamin D receptor signaling (AID 588541; calls by dose curve; also: potency is read from the fitted curve at half-maximal effect); details: HEK293T VDR-UAS-bla, beta-lactamase ratio, antagonist mode; activity change, negative = inhibition: at 76.7 µM (top of the series)
[9] = target: Retinoic acid receptor RXR-alpha (Homo sapiens) (UniProt P19793); test: qHTS assay for small molecule agonists of retinoid X receptor alpha signaling (AID 588544; calls by dose curve; also: potency is read from the fitted curve at half-maximal effect;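 as to activation: 0% = DMSO basal wells and 100% = reference agonist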); details: HEK293T RXRa-UAS-bla, beta-lactamase reporter, 18 h; activation: at 76.7 µM (top of the series)
[10] = qHTS assay for small molecule agonists of the antioxidant response element (ARE) signaling pathway (AID 651741; active = well fitted activation curve with a large enough effect in the signal ratio; inconclusive = small, poorly fitted or top-dose-only effect, or effect the other way, or a change in a side signal; the % refers to the signal ratio; also: potency is read from the fitted curve at half-maximal effect); details: HepG2 ARE-bla reporter, beta-lactamase FRET ratio, 16 h; activation: at 96 µM (top of the series)
Outline: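 Quantitative HTS in HepG2 cells stably expressing an ARE-beta-lactamase reporter; 16 h compound exposure at 37 C, followed by 2 h room-temperature incubation with LiveBLAzer B/G FRET substrate and fluorescence measurement.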

[11] = target: Calcium and integrin-binding protein 1 (Homo sapiens) (UniProt Q99828); test: Primary qHTS for Identification of Calcium Integrin Binding Protein 1 (CIB1) Competitor (AID 1508620); also: potency is read from the fitted curve at half-maximal effect
Outline: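 CIB1-GST (1 uM final) and compound incubated 15 min at room temperature before adding FITC-alphaIIb peptide tracer (100 nM final). Competition for binding read by fluorescence polarization (ex 480, em 540) after another 15 min at room temperature.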

[12] = NCATS anti-infectives library activity on HEK293 viability as a counter-qHTS vs the C. elegans viability qHTS (AID 1745854);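 also: HEK293 cells exposed to compounds for 24 hr before the viability read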; also: potency is read from the fitted curve at half-maximal effect; as to activity change, negative = cytotoxicity: % is scaled to controls: 0 for no effect and ±100 for the full control effect
Outline: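 Compounds were acoustically plated (several concentrations, 1:5, final up to 41.7 uM), then 1500 HEK293 cells added per well and incubated 24 hr at 37C, 5% CO2. CellTiter-Glo was added and luminescence read after 10 min.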

Furin (Homo sapiens) = Furin (Homo sapiens) (UniProt P09958); test: Furin counterscreen qHTS for Zika virus inhibitors (AID 1347149); also: potency is read from the fitted curve at half-maximal effect; nearly all actives have a fitted effect of over 70% in size
Outline: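 Fluorogenic cleavage of BOC-RVRR-AMC (2 microM final, Km ~15 µM) was monitored (ex 340, em 450 nm) at 37C after 15 min RT preincubation of 5 nM furin with compounds in HEPES pH 7.0 buffer with CaCl2 and Triton X-100. Percent inhibition was fitted to a 4-parameter Hill curve.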

[13] = Tertiary RLuc qRT-PCR qHTS assay for Zika virus inhibitors (AID 1347169); also: potency is read from the fitted curve at half-maximal effect; nearly all actives have a fitted effect of over 55% in size
Outline: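 Vero cells (1,000 per well) plated overnight at 37 degrees C, treated with compound in DMSO, then infected with recombinant ZIKV-RLuc (Cambodian) at MOI 1-2 for 48-72 hrs. Live-cell Renilla luciferase substrate added; luminescence read after 1-1.5 hrs.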

PC15 = test: qHTS profiling for inhibitors of Plasmodium falciparum proliferation (AID 504749);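 also: 0% = DMSO vehicle and full inhibition = artemisinin control; nearly all actives have a fitted effect of over 60% in size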; details: P. falciparum in erythrocytes, SYBR Green DNA, 72 h; series mostly up to 28.7 µM
Outline: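 Infected RBCs, 0.3% parasitemia/2.5% Hct final; cpd 72 h, 37 C, 5% CO2; lysis buffer with saponin/triton/SYBR Green I, o/n RT dark; FI 485/535; norm. to artemisinin (0.29 uM) and DMSO.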

[14] = Confirmatory qHTS for small molecule stabilizers of the endoplasmic reticulum resident proteome: Secreted ER Calcium Modulated Protein (SERCaMP) assay (AID 1508628); also: nearly all actives have a fitted effect of over 40% in size; also: potency is read from the fitted curve at half-maximal effect
Outline: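 SH-SY5Y cells stably expressing GLuc-SERCaMP, treated 16 h with compound (primary 1.53, 7.67, 38.3 uM; confirmation 11 concentrations, up to 76.6 uM), then 100 nM thapsigargin for 4 h. Secreted Gaussia luciferase in medium read by coelenterazine luminescence.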

[15] = Cell Viability qHTS for small molecule stabilizers of the endoplasmic reticulum resident proteome (AID 1508629); details: cell viability counter-screen, 100 nM thapsigargin for final 4 h;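 also: potency is read from the fitted curve at half-maximal effect; compound exposure about 46 h in total before the viability read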
[16] = qHTS to identify inhibitors of the type 1 interferon - major histocompatibility complex class I in skeletal muscle: primary screen against the NCATS Pharmaceutical Collection (AID 1347407); details: human skeletal muscle cells, IFN-b-induced MHC-I HiBiT luminescence, 24 h; activity change, negative = inhibition: at 45.9 µM (top of the series)
Outline: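 Immortalized human myoblasts (C25cl48) with HiBiT knocked into endogenous HLA-B*08:01 were stimulated with 4 ng/ml IFN-beta and treated with compounds (8-point, 1:5, top 46 uM final) for 24 h at 37 C; HiBiT lytic luminescence read.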
Tags tell the direction and shape of the fitted curve or compound fluorescence and quenching.

Sequence of UniProt P09958 (P09958 whole entry, looked up): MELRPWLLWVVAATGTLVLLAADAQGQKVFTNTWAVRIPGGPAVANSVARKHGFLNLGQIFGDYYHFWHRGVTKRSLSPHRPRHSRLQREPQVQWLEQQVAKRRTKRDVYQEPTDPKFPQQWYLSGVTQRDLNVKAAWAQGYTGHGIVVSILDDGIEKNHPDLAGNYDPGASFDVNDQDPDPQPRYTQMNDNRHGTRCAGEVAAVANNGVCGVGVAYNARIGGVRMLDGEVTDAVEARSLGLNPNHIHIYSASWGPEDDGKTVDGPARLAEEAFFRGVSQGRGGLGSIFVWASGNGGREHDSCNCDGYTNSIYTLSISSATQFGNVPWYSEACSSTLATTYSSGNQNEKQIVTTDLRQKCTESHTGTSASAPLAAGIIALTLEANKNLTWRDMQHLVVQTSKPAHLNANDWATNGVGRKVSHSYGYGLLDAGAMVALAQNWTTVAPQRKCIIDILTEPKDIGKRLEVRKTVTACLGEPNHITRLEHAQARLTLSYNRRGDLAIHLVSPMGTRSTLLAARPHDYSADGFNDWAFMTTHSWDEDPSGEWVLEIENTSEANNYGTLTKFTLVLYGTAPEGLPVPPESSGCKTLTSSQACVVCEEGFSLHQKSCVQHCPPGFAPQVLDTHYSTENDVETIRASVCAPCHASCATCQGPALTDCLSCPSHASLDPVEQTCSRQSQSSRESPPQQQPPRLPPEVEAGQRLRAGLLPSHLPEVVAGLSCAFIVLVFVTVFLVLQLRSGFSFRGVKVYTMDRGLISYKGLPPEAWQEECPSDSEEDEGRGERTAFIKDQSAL
Sequence of UniProt P19793 (P19793 whole entry, looked up): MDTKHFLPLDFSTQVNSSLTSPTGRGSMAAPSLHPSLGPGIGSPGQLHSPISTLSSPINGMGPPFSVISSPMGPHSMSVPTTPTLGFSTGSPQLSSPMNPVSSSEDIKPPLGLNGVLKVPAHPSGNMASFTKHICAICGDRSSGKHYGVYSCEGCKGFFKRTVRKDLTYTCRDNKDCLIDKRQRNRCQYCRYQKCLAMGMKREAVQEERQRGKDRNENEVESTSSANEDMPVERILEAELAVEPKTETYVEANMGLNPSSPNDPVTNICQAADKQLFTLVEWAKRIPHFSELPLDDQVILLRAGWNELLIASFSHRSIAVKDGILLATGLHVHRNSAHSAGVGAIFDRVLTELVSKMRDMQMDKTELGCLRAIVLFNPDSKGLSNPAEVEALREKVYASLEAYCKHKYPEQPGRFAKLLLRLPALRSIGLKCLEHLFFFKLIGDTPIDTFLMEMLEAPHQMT
Sequence of UniProt Q99828 (Q99828 whole entry, looked up): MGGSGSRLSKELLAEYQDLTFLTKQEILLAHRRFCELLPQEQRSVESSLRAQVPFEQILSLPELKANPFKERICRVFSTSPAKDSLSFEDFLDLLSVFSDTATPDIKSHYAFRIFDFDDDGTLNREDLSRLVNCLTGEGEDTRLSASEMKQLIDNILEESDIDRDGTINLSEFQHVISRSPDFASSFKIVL

O=C(Nc1cc(C(F)(F)F)cc(C(F)(F)F)c1)c1cc(Cl)ccc1O
Potency [1]: active: 1.47 µM
Potency [2]: inconclusive: 2.34 µM [cytotoxic, full curve]

CN(C)CCCN=c1c2ccccc2n(C)c2[nH]c(=O)n(C)c(=O)c12
activity change, negative = inhibition [3]: inconclusive: -42.4% [inhibitor]
activity change, negative = inhibition [4]: inactive: 0.481% [at 11.4 µM]
Potency [5]: inactive

C[C@]12CCC(=O)C=C1CC[C@@H]1[C@@H]2[C@@H](O)C[C@@]2(C)[C@H]1CC[C@]2(O)C(=O)CO
Potency [6]: active: 0.0141 µM
activity change, negative = inhibition [7]: inconclusive: -18% [phenotype inactive]
Potency [8]: inconclusive: 44.7 µM [activator, partial curve]
Potency [9]: inconclusive: 50.1 µM [side channel, rising, single point]
Potency [10]: inconclusive: 24.3 µM [activator, full curve, poor fit]

O=c1[nH]nc(Sc2ncc([N+](=O)[O-])s2)n1-c1ccc2c(c1)OCCO2
Potency [11]: inconclusive: 21.5 µM [inhibitor, partial curve]

Cn1c(=O)n(-c2ccc(C(C)(C)C#N)cc2)c2c3cc(-c4cnc5ccccc5c4)ccc3ncc21
Potency [5]: active: 0.369 µM

Cc1nnc(C(C)C)n1C1CC2CCC(C1)N2CC[C@H](NC(=O)C1CCC(F)(F)CC1)c1ccccc1 (some centres not stated)
Potency [12]: inactive

Cc1c2oc3c(C)ccc(C(=O)N[C@@H]4C(=O)NC(C(C)C)C(=O)N5CCC[C@H]5C(=O)N(C)CC(=O)N(C)C(C(C)C)C(=O)O[C@@H]4C)c3nc-2c(C(=O)N[C@@H]2C(=O)NC(C(C)C)C(=O)N3CCC[C@H]3C(=O)N(C)CC(=O)N(C)C(C(C)C)C(=O)O[C@@H]2C)c(N)c1=O (some centres not stated) (I: T[ξV]P[Sar][ξNMeV] / II: T[ξV]P[Sar][ξNMeV]; ester I:1-I:C, II:1-II:C; linker I:N-II:N via Actinocin(9to1))
Potency (Furin (Homo sapiens)): inconclusive: 27.1 µM [inhibitor, partial curve]
Potency [1]: inactive
Potency [13]: active: 0.208 µM

Nc1nc(Cl)nc2c1ncn2[C@H]1C[C@H](O)[C@@H](CO)O1
Potency [8]: inactive
activation [9]: inconclusive: 27%
Potency [10]: inconclusive: 0.0217 µM [side channel, falling, full curve, poor fit]
Potency (PC15): inactive

COC(=O)C1=C(C)NC(C)=C(C(=O)OCCCN2CCC(c3ccccc3)(c3ccccc3)CC2)[C@H]1c1cccc([N+](=O)[O-])c1
activity change, negative = inhibition [4]: inconclusive: -43.5%
Potency [14]: inactive
Potency [15]: active: 25.1 µM and active: 28.2 µM

O=C1Nc2ccc(Cl)cc2[C@@](C#CC2CC2)(C(F)(F)F)O1
Potency [12]: inconclusive: 31.6 µM [cytotoxic, single point]

C=CC(=O)N1CCC[C@@H](n2nc(-c3ccc(Oc4ccccc4)cc3)c3c(N)ncnc32)C1
Potency [5]: inconclusive: 11.7 µM [cytotoxic, single point]

COc1cc(C(C)C)c2c(c1)S(=O)(=O)N(COc1cc(=O)n3cccc(OCCN4CCCCC4)c3n1)C2=O
Potency [14]: inactive
Potency [15]: inconclusive: 79.4 nM [rising, full curve]

CC(=O)O[C@@]12CO[C@@H]1C[C@H](O)[C@@]1(C)C(=O)[C@H](O)C3=C(C)[C@@H](OC(=O)[C@H](O)[C@@H](NC(=O)OC(C)(C)C)c4ccccc4)C[C@@](O)([C@@H](OC(=O)c4ccccc4)[C@H]21)C3(C)C
Potency [16]: inconclusive: 0.021 µM [inhibitor, full curve, poor fit]

CC(=O)Nc1sc2c(c1-c1nc3ccccc3s1)CNC2
Potency [11]: inconclusive: 12.6 µM [inhibitor, full curve, poor fit]

O=C(O)CC/C=C\CC[C@H]1[C@@H](N2CCCCC2)[C@@H](O)C[C@@H]1OCc1ccc(-c2ccccc2)cc1
Potency [4]: inactive

CCN(CC)CCn1c(=O)c(Cc2ccc(OC)cc2)nc2ccccc21
Potency [14]: inconclusive: 39.8 µM [inhibitor, partial curve]
Potency [15]: inconclusive: 141 nM [rising, full curve]

COc1cc2nccc(Oc3ccc(NC(=O)NC4CC4)c(Cl)c3)c2cc1C(N)=O
Potency [5]: inconclusive: 0.414 µM [cytotoxic, full curve]

CN1CCC(CNc2ccc3ncc(-c4cccc(OC(F)(F)F)c4)n3n2)CC1
Potency (Furin (Homo sapiens)): active: 21.5 µM
Potency [1]: inconclusive: 26.1 µM [cytotoxic, single point]
Potency [2]: active: 11.7 µM
Potency [13]: inconclusive: 9.27 µM [inhibitor, full curve]
